Experimental data: the supplement of paper PMC10126150
Values marked as one replicate rest on one cluster of the flow cell; about a third of the high ones do not repeat.

system: ATP; test: switch fluorescence ratio, 500 uM ATP over buffer (Cy3 cluster intensity, sum of 5 cycles each) (fold (ratio)); higher = stronger signal-on switching upon ATP binding; sequences stand for … in TCGTCGGCAGCGTCAGATGTGTATAAGAGACAGTTTTTTTTTTTTTTTTTTTTTTTTT…TC; settings: aptamer strand: ATP DNA aptamer (quencher-CACCTGGGGGAGTATTGCGGAGGAAGG + anchor), 100 nM annealed; ATP concentration: 500 uM; one replicate
In short: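 Imaging in selection buffer was followed by imaging after 15 min with 500 uM ATP at 22 °C, for Cy3-labelled switching-strand clusters annealed to 100 nM quencher-labelled ATP aptamer on a modified Illumina MiSeq flow-cell. Five of these buffer/ATP cycles ran, separated by NaOH stripping and re-annealing. The fluorescence ratio per cluster is summed target-cycle over summed buffer-cycle Cy3 intensity, averaged per switch-domain sequence; clusters outside 100-1000 RFU were removed.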
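Further: ATP exposure 15 min at 22 °C before imaging.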

| Sequence | switch fluorescence ratio |
| --- | --- |
| ACAGTAATTT | 1.09 |
| ACAGTATACT | 1.18 |
| ACAGTATCCG | 0.981 |
| ACAGTATTCA | 1.08 |
| ACAGTCCAGT | 1.03 |
| ACAGTCTCGC | 1.08 |
| ACAGTGACTT | 1.09 |
| ACAGTGCGGG | 0.974 |
| ACAGTGGGGC | 0.991 |
| ACAGTGGTTA | 1.01 |
| ACAGTTGGG | 1.02 |
| ACATAAACCT | 2.87 |
| ACATACCTGA | 1.21 |
| ACATACGTCT | 1.3 |
| ACATATGTCT | 0.982 |
| ACATCAAATG | 0.944 |
| ACATCAATGA | 1.02 |
| ACATCAGCAC | 1.02 |
| ACATCAGTAA | 0.986 |
| ACATCCGCAT | 2.05 |
| ACATCTCTAA | 0.968 |
| ACATGAGATG | 1.01 |
| ACATGCACGT | 1.38 |
| ACATGCGCCG | 1.04 |
| ACATGCTGTG | 1.02 |

| Sequence | switch fluorescence ratio |
| --- | --- |
| ACATGGACTC | 1.11 |
| ACATGGGAAA | 1 |
| ACATGGTCAC | 0.999 |
| ACATGGTGGG | 1.02 |
| ACATGTCTCG | 1.02 |
| ACATGTGAAG | 1.02 |
| ACATGTGGTT | 1.01 |
| ACATGTGTCT | 1 |
| ACATTAATCG | 0.998 |
| ACATTACCGT | 1.38 |
| ACATTAGGC | 1.02 |
| ACATTATACA | 1.08 |
| ACATTGGAAA | 0.995 |
| ACATTGGGTA | 0.935 |
| ACATTGTAGT | 0.962 |
| ACATTGTGCT | 0.938 |
| ACATTGTGTC | 1.03 |
| ACATTTCGC | 1.02 |
| ACATTTGTTC | 0.997 |
| ACATTTTC | 1.01 |
| ACCAAAACTA | 1.02 |
| ACCAAACCTT | 2.64 |
| ACCAACGAGA | 1.28 |
| ACCAAGATCT | 1.03 |
| ACCAAGGTG | 4.47 |

| Sequence | switch fluorescence ratio |
| --- | --- |
| ACCAAGTGTG | 1.11 |
| ACCAATGACA | 1.07 |
| ACCAATTTCG | 1.02 |
| ACCACAAGGG | 1.06 |
| ACCACCAGTT | 1.19 |
| ACCACGGCAC | 1.77 |
| ACCACGGTGG | 0.954 |
| ACCACTATGT | 1.04 |
| ACCACTGCTT | 1.21 |
| ACCAGAGGTG | 1.23 |
| ACCAGATGAT | 0.999 |
| ACCAGATT | 0.945 |
| ACCAGCACCC | 1.29 |
| ACCAGCAGGC | 1.33 |
| ACCAGGCGCA | 1.12 |
| ACCAGGGAAG | 1.03 |
| ACCAGGGTTG | 1.22 |
| ACCAGTAGCA | 1.07 |
| ACCATATAAT | 1.03 |
| ACCATGGGCG | 1 |
| ACCATTCTGT | 0.964 |
| ACCATTGGCC | 0.991 |
| ACCCAAAATG | 1.03 |
| ACCCAATGTT | 1.03 |
| ACCCACTTGG | 1.21 |

| Sequence | switch fluorescence ratio |
| --- | --- |
| ACCCATGAAT | 0.955 |
| ACCCCCACGA | 1.43 |
| ACCCCCGAGT | 1.35 |
| ACCCCTGCTT | 1.01 |
| ACCCGAAGT | 1.09 |
| ACCCGCTAAT | 2.61 |
| ACCCGGAGGG | 0.916 |
| ACCCGGCATA | 1.47 |
| ACCCGGTGTC | 1.61 |
| ACCCGGTTAT | 1.03 |
| ACCCGGTTTT | 1.04 |
| ACCCGTTTGA | 1.02 |
| ACCCTAAATG | 0.979 |
| ACCCTAACCG | 1.02 |
| ACCCTAGTGG | 0.985 |
| ACCCTCTCGC | 1.79 |
| ACCGAACCGC | 2.22 |
| ACCGACCAGC | 2.11 |
| ACCGACTATG | 1.05 |
| ACCGAGGGTA | 1.05 |
| ACCGATCGGG | 0.99 |
| ACCGCAACGA | 1.49 |
| ACCGCGCGAG | 0.977 |
| ACCGCGGTAA | 0.981 |
| ACCGCTACGT | 1.38 |

| Sequence | switch fluorescence ratio |
| --- | --- |
| ACCGCTGAGT | 1.11 |
| ACCGGACGGC | 1.19 |
| ACCGGCAAGA | 1.08 |
| ACCGGCTTAA | 1.02 |
| ACCGGCTTGG | 0.953 |
| ACCGGGGCAG | 1.05 |
| ACCGGGTTAG | 0.993 |
| ACCGGGTTGA | 1.02 |
| ACCGGTGCTC | 1.12 |
| ACCGTATTGT | 1.16 |
| ACCGTCCCTA | 1.07 |
| ACCGTCCTTT | 1.05 |
| ACCGTGTCGA | 1.03 |
| ACCGTGTCTC | 1.06 |
| ACCGTTCGGG | 0.974 |
| ACCGTTGGCA | 0.963 |
| ACCGTTGTTT | 0.957 |
| ACCTAATATT | 1.02 |
| ACCTACACGT | 1.23 |
| ACCTAGTAGG | 0.995 |
| ACCTAGTCTA | 1.02 |
| ACCTATGTTG | 1.02 |
| ACCTCAGCGG | 1.4 |
| ACCTCATGTG | 1.29 |
| ACCTCCTATA | 1.21 |

| Sequence | switch fluorescence ratio |
| --- | --- |
| ACCTCGGTAA | 1.06 |
| ACCTCGTTGC | 1.11 |
| ACCTCTCGCC | 1.7 |
| ACCTCTGTTA | 1.1 |
| ACCTGAGCGG | 1.05 |
| ACCTGAGGG | 1 |
| ACCTGATGTT | 0.986 |
| ACCTGCCTCA | 2.86 |
| ACCTGCTTGA | 1.07 |
| ACCTGGATCG | 1.31 |
| ACCTGGGAC | 1.03 |
| ACCTGGGGTC | 1.05 |
| ACCTGTAAT | 0.986 |
| ACCTGTGGTG | 1.06 |
| ACCTTAGCAT | 1.43 |
| ACCTTATTCT | 1.05 |
| ACCTTCTGAC | 1.14 |
| ACCTTGACGC | 2.06 |
| ACCTTTCCCC | 1.76 |
| ACGAAATATC | 2.6 |
| ACGAACCAGG | 3.11 |
| ACGAACCGAG | 1.45 |
| ACGAACTCTT | 1.18 |
| ACGAATGGAA | 1.06 |
| ACGACAGGCA | 1.16 |

| Sequence | switch fluorescence ratio |
| --- | --- |
| ACGACAGTGT | 1.02 |
| ACGACATGTG | 1.05 |
| ACGACATTCA | 1.15 |
| ACGACGCAGG | 2.17 |
| ACGACGCGCC | 5.33 |
| ACGACGGCA | 1.46 |
| ACGACGGGGT | 1.02 |
| ACGACGTGCA | 1.09 |
| ACGACTCGC | 1.25 |
| ACGACTGATG | 1.06 |
| ACGACTTCGC | 1.3 |
| ACGAGCAAGG | 2.68 |
| ACGAGCACA | 2.56 |
| ACGAGCATCT | 1.23 |
| ACGAGGAGCA | 1.03 |
| ACGAGGGGC | 1.03 |
| ACGAGGTACG | 1.08 |
| ACGAGTGAGG | 1.03 |
| ACGAGTGCAA | 1.93 |
| ACGAGTTATC | 1.02 |
| ACGATAATG | 1.13 |
| ACGATACCTT | 1.51 |
| ACGATCCACT | 1.23 |
| ACGATCTAAC | 1.09 |
| ACGATGCTCG | 1.01 |

| Sequence | switch fluorescence ratio |
| --- | --- |
| ACGATGGATA | 1.01 |
| ACGATGGATG | 1.01 |
| ACGATGGGTT | 0.967 |
| ACGATTCAGG | 1.43 |
| ACGATTGCAG | 1.04 |
| ACGATTTACC | 1.17 |
| ACGCAGGCGG | 1 |
| ACGCATCTCT | 1.56 |
| ACGCATTAAT | 1.19 |
| ACGCCATGTC | 1.23 |
| ACGCCATTTA | 1.17 |
| ACGCCCTTCG | 1.19 |
| ACGCGACCTG | 1.15 |
| ACGCGAGAGG | 0.998 |
| ACGCGGTTGC | 1.07 |
| ACGCGTACAC | 1.09 |
| ACGCGTCTGG | 0.982 |
| ACGCGTTAGG | 1.02 |
| ACGCTACTAT | 1.38 |
| ACGCTAGATA | 1.05 |
| ACGCTAGCCA | 1.12 |
| ACGCTAGGGA | 1.03 |
| ACGCTATAAA | 1.16 |
| ACGCTCGGGA | 0.941 |
| ACGCTGAGCT | 1.05 |
